Results are given in words; binding and its absence hold for the method and conditions named. In cells and extracts the contact can be indirect. Some entries that bind do so weakly or less than the wild type. For some assays here: Sequences can lack the tags named with a protein.

The chains behind the UniProt entries cited, without tags or fusion partners.
UniProt O15047: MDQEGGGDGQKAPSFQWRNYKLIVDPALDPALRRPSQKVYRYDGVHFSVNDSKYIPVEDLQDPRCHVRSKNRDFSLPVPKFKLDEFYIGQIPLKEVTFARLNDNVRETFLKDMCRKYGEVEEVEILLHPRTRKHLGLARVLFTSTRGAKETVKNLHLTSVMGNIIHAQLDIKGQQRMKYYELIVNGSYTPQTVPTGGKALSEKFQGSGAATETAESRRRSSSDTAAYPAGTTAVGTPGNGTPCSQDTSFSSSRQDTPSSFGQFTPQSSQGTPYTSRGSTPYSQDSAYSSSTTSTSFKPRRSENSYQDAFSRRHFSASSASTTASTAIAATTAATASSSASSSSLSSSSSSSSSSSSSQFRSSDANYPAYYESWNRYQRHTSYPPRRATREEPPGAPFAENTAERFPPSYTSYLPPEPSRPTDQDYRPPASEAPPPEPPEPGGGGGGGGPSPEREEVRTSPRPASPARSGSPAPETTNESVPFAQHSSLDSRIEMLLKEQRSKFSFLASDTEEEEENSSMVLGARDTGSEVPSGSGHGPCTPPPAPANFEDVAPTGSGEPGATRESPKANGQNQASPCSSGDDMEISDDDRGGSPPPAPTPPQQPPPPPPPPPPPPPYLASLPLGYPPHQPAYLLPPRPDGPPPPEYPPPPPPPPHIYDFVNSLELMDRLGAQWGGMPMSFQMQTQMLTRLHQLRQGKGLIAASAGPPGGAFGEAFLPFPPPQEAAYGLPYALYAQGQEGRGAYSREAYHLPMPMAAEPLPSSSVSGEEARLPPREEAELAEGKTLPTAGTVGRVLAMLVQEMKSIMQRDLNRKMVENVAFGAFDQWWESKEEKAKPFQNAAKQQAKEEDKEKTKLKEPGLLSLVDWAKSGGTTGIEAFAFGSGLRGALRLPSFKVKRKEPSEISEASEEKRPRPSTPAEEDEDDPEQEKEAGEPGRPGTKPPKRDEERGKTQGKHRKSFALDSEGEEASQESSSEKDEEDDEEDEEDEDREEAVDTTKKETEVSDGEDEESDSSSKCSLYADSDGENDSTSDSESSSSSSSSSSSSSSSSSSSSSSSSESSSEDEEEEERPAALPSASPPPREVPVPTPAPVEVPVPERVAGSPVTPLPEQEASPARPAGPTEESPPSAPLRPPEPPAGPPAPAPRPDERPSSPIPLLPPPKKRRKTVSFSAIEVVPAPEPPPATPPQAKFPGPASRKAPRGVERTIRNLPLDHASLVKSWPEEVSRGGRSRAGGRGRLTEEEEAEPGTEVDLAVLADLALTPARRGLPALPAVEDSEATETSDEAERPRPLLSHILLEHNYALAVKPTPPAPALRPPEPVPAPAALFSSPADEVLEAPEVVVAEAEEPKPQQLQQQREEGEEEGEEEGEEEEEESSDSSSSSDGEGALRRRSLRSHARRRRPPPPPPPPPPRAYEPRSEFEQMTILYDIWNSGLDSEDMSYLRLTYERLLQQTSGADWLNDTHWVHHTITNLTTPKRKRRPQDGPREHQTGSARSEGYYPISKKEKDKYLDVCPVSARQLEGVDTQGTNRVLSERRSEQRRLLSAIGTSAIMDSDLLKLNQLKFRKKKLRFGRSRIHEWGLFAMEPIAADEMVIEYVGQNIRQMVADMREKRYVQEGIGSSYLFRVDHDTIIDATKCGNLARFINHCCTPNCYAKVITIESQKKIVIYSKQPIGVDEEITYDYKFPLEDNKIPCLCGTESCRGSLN
UniProt Q9UPS6: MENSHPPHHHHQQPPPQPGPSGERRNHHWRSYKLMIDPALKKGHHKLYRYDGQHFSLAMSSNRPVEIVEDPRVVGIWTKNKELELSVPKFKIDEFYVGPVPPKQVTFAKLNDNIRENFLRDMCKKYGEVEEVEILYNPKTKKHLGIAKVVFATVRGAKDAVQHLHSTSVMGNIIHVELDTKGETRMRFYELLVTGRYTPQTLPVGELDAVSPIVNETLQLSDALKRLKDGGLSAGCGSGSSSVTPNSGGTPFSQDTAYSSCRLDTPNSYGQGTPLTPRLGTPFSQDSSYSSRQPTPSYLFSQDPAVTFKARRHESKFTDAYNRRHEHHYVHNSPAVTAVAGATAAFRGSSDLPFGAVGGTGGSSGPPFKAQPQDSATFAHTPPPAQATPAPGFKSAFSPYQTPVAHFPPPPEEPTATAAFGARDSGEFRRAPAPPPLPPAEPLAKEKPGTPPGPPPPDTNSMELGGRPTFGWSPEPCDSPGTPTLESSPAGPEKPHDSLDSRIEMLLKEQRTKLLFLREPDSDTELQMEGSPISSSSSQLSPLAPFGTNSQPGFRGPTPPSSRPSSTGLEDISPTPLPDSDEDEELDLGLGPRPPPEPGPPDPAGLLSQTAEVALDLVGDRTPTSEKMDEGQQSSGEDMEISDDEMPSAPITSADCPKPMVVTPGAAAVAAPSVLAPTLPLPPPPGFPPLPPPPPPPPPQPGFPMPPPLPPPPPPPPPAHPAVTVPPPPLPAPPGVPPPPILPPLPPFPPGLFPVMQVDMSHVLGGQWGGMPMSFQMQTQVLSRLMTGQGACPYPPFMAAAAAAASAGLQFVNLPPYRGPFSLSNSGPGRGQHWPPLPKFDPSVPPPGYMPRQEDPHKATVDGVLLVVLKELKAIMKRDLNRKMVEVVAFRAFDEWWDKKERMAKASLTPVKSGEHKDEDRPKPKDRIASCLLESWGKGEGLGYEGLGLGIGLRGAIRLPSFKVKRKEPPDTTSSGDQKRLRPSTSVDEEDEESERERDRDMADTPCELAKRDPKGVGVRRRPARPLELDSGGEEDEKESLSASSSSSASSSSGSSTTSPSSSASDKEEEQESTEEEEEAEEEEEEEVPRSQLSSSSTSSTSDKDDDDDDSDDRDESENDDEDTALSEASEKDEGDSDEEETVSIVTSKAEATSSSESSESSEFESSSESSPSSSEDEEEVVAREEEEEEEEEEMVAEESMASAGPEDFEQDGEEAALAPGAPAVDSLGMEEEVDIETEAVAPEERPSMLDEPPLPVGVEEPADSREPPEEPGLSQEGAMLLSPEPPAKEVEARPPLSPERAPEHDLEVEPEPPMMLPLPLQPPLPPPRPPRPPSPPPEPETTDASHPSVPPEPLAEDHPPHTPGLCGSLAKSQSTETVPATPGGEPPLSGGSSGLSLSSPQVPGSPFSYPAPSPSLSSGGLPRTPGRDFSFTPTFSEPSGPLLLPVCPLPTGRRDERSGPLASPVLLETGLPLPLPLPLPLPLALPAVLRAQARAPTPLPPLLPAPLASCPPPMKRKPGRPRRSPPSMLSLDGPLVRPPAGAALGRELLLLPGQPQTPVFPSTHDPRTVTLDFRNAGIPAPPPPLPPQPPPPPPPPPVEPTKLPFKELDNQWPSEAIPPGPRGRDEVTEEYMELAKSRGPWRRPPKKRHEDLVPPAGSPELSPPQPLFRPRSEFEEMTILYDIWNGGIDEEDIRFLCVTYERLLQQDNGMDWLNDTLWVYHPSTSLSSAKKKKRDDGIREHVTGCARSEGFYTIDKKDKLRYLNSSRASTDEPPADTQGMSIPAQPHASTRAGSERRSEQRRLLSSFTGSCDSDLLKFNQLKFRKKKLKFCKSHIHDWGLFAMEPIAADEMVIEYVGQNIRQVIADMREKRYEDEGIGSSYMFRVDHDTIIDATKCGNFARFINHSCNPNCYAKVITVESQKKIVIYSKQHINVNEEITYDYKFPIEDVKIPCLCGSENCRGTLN

The target of assay [1] is T1, GST-tagged BOD1L fragment 2 (aa 500-1000 of BOD1L) (human) (UniProt Q8NFC6).
T1 sequence: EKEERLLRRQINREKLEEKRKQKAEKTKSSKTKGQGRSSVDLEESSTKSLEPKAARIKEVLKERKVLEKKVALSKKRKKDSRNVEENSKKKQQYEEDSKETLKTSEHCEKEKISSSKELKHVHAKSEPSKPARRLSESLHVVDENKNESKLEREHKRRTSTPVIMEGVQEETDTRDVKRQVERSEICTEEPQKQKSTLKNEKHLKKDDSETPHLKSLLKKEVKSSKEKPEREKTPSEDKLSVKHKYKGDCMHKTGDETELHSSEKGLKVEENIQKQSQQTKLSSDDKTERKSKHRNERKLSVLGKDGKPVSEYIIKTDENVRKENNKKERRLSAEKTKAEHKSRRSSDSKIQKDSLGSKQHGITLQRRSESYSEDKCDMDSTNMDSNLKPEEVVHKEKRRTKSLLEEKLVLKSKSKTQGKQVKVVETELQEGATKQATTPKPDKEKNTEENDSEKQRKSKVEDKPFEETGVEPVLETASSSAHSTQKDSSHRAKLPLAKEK
Nature of the assay: pull-down; 1 ug affinity-purified GST or GST fusion protein incubated with pre-clarified HeLa nuclear extract for 3 hr at 4 C, glutathione Sepharose, immunoblotting; only the target purified. A general note: A western blot detects proteins with antibodies after separation by electrophoresis.

Assay [2] concerns the target GST-tagged BOD1L fragment 1 (aa 1-600 of BOD1L) (human) (UniProt Q8NFC6). Described as above.
Assay [3] has as its target BOD1L (human (endogenous in HeLa)) (UniProt Q8NFC6). In words: co-IP; HeLa nuclear extracts clarified at 44,000 x g, immunoprecipitated with 5 ug of the indicated antibody or IgG for 3 hr at 4 C, protein-A Sepharose, immunoblotting; reciprocal immunoprecipitations.

As to “SETD1A (from UniProt O15047 1-1707) (enzyme)”, the binding result in assay [1] is recorded as “no binding”; in assay [2] it was “binds”; in assay [3], “binds”.
Turning to “SETD1B (from UniProt Q9UPS6 1-1966) (enzyme)”, the binding entry in assay [2] and in assay [3] was “no binding” throughout.
